Reference: the supplement of paper PMC11417369
Some of the results follow.

System: PfHDP1 homeodomain (GST-tagged)
Assay: gcPBM binding intensity (ln(normalized median fluorescence intensity)); higher = stronger DNA binding
Procedure, shortened: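 For binding intensity, the highest Masliner-normalised natural-log median intensity across replicate spots of either probe orientation was taken. Protein bound to the array was stained with Alexa488 anti-GST antibody and scanned at 488 nm. The protein, GST-tagged P. falciparum DNA-binding domains from E. coli at about 25 μg on average, had been applied for 1 h to an Agilent 4 × 180k array of primer-extended double-stranded 36-bp intergenic genomic probes and negative controls.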

Row | Sequence | gcPBM binding intensity (ln)
1 | ATATATATAAAATAAAGTACCCGTAAAACCTATATG [XGTACX_site6937] | 6.8
2 | TAATTATAAAAATAAAACAACCAAATTTGTTATATA [CACACA_negctrl_site750] | 6.31
3 | TAATTTATAAATAATTGTACATAGTTTATTTAGATT [XGTACX_site4599] | 6.07
4 | GAAAGGAAAAGTTGAACACACAAAGTAAACTATAAG [CACACA_site3535] | 6.55
5 | TATGTTAATCCTATTTGTACATATAATCGAATTAAA [XGTACX_site7090] | 6.35
6 | GACGACTATATTAATTGTACTCAATTTAAGCATAAT [XGTACX_site2750] | 6.27
7 | AGATTGAAATATAGTTGTACAAATATTTTAAAACAT [XGTACX_site3026] | 6.92
8 | CAATCAACAAAACATACACACACATATATATATATA [CACACA_site8979] | 9.12
9 | TTGTTCCAATAAAATCGTACAATTAAACAACCAAAC [XGTACX_site5759] | 7.18
10 | TTTTTTTCTATAATACACCAGAAAAAAAAATTAAAA [TGCATGCA_negctrl_site257] | 6.5
11 | TTAAAATTAAAAATAGGTACACATATGAACAAGGAC [XGTACX_site1180] | 7.69
12 | TTATATGATATATGACGTACATATTAATAACATCTA [XGTACX_site6716] | 6.22
13 | TGTAATATTTTATAAAGTACATTATAATATAATTCA [XGTACX_site2961] | 6.04
14 | CAAGAACAAAAAATATGTACATATAATTATATATAT [XGTACX_site2082] | 7.01
15 | CATATCTCTTATTAATGTACATTTTTAAAAGTAAAT [XGTACX_site2847] | 6.5
16 | TTTATATAATGGAAAAGTACTCAGGAAATTTATACA [XGTACX_site3635] | 6.46
17 | CTTTTTTTTATGAACAGTACAGAAATATATATATAC [XGTACX_site5613] | 6.63
18 | TTATTACATATAAAGGAAAATAGCATCTAGATTAAA [XGTACX_negctrl_site435] | 6.36
19 | TCTTTTTTGAACTAGCGTACATGAAAATATTTATAG [XGTACX_site7359] | 6.38
20 | AAAAAAAAAAAAAAAAAATACATATACATTTGTGCA [CACACA_negctrl_site1431] | 6.76
21 | TTTTTATTTATATATAAGGAAAATGCGGTATATATT [CACACA_negctrl_site1770] | 6.73
22 | TAAATCCGTTTGATGGGTACATACATACATACATAT [XGTACX_site8889] | 6.34

Row | Sequence | gcPBM binding intensity (ln)
23 | TTTTTATAAGCATAAAGTACAAATATTTTTTAGTTG [XGTACX_site4140] | 6.15
24 | AACACCCATGGACACACACACATATATATATATATA [CACACA_site5809] | 9.32
25 | ACAATAAAATATGGCACACATATATATATATATTTA [CACACA_site3] | 6.47
26 | ATTTATTTTAGTAAAGCACACGTGTAAAATATATCT [CACACA_site4820] | 7.11
27 | GTAATTTTTTTCTATACACACATATCTATAATATAT [CACACA_site7284] | 6.94
28 | TACTTATAATTTCAATGTACATATATATAATATCAT [XGTACX_site2424] | 6.58
29 | ATTTTAAATATGGAATGTACTTAAAAAAAATTTCAT [XGTACX_site5058] | 6.06
30 | ATTTCTTATTAAATTACACACAAAGTAAATAAATCT [CACACA_site3924] | 6.44
31 | AATTAAATATTATAAACACACATATAGATTATTTTT [CACACA_site6538] | 6.15
32 | AAATACATAACTTAAAATTTGTTCATATCTATACAT [TGCATGCA_negctrl_site249] | 6.38
33 | TATAATAATATGGATTGTACATATATATTTAATTAA [XGTACX_site4327] | 6.16
34 | TTTTCCTTTTTTTTTACATGCAGATATAGAAAGGTA [TGCATGCA_site106] | 6.36
35 | TTGTTTTGGATTATCACACATATAATATATACTCAT [CACACA_site4780] | 6.75
36 | ACAAAATAAATATGAACACACACATTTATGCCTTTA [CACACA_site8346] | 6.08
37 | ATAATTATACATATTACACACTCTCTTGATCTTTTT [CACACA_site3853] | 6.88
38 | TATCACATATTATGATGTACAAGGTTTCTGACTAAT [XGTACX_site2763] | 6.14
39 | TTTTTATACAACTTATAATACATCTGAAAATATAAA [XGTACX_negctrl_site36] | 6.32
40 | TTGTCTGACTAATTTTTTTCTGTTTGTACGTTCTTA [GTGCAC_negctrl_site602] | 6.38
41 | ACACAAAACAAAAAGGTGCTGTATAAATGGGTGTAT [GTGCAC_site9905] | 7
42 | CATATATAAAAAAACACACACATATTTATATTTATA [CACACA_site6682] | 6.58
43 | AAAAAAATTTATAAATATTTTATTAATATATTTACC [GTGCAC_negctrl_site690] | 6.51
44 | CATATTTCTTACATTTGTACTTAATAAAATTAATCA [XGTACX_site7224] | 6.53

Row | Sequence | gcPBM binding intensity (ln)
45 | GATATATATATTCACACACACATGGAAATATATATA [CACACA_site382] | 6.64
46 | ATATATATATGTGCCAGTACACATGTATACATTATA [XGTACX_site3899] | 8.3
47 | AAAATTAATAAATAAACACACATATTTATATTTATA [CACACA_site7266] | 6.02
48 | TCGTCACTTTAATATTGTACATATATATATATATAT [XGTACX_site8046] | 9.54
49 | TATAAATATAGACACACACACACACCGAAGCGTAGC [CACACA_site6180] | 6.65
50 | CATCCATTATTAATATGTACATATGTATATATATTA [XGTACX_site1318] | 6.59
51 | CACATACACATACAAACACACATTATATATATATAT [CACACA_site8460] | 9.02
52 | TTTTTTTTTTTTTTTTTTTTTTTCTTTATTTTTTTT [CACACA_negctrl_site703] | 6.11
53 | GAAAAAAAAAAAAGGGGTACATTTATTTTATCAATA [XGTACX_site8331] | 5.99
54 | AATAATTATTTGTATAGTACAATATACAAAAGATGA [XGTACX_site4312] | 6.7
55 | AAAATTTAAAAATGGACACACACAAAAAATAATACT [CACACA_site7972] | 7.14
56 | AACTTTTTACAAACAGGTACGCATATATATATATAT [XGTACX_site5081] | 9.41
57 | ATATATAAAATTATATGTACATATATCTATTTATAA [XGTACX_site3713] | 6.44
58 | ACCTCACAAATGAATACACACAAACATATAGATTTA [CACACA_site6862] | 7.08
59 | GATTAAAACTTTAACTGTACATAATAATTATCAATC [XGTACX_site5938] | 6.31
60 | TTTAAAATTTCTTAATGTACGTAATAAAAAAAAAAA [XGTACX_site4037] | 6.36
61 | AATATTGTTCACAAGGTGCTTTTTATTCATACTAAT | 6.22
62 | TATGTATAACTCAATGCATGCGAAGGACTATTATTT [TGCATGCA_site222] | 6.47
63 | TATATCTACTTAAAAAGTACGTAAATTATAAGCTAT [XGTACX_site6420] | 5.98
64 | TGTGTAAATATGTATACACACATATCTGATCAATAT [CACACA_site7507] | 6.62
65 | TATATGTATTTATATACACACATATTCTTTTTACAC [CACACA_site8320] | 6.69
66 | AATATTTTGAACAACAGTACTCTTTCTTTCTTTCTT [XGTACX_site7212] | 6.28

Row | Sequence | gcPBM binding intensity (ln)
67 | TCCTTTTCATCTTGTAGTACGGAAATGTAGCTCCAA [XGTACX_site8563] | 6.58
68 | TGCATATGCATTATTTGTACATATGTAGATAATTAT [XGTACX_site6930] | 6.81
69 | CATATATAGATATATACACACATACATACATACATA [CACACA_site7748] | 6.69
70 | AAAAATTACAAATACAAACACACAAATGTTTTTCAT [CACACA_site3551] | 6.27
71 | AATAAAATAAATATATGTACATATATATAACCATTA [XGTACX_site5549] | 6.47
72 | AGAGAAAGAAGGGAGAAAAAATAAAATAAAATAAAA [GTGCAC_negctrl_site299] | 6.43
73 | AATAAAAAAAAACTCATGCACACAATATTATGAAAA [CACACA_site664] | 8.71
74 | TTTTAATGATATATGAGTACACATTGTTTTTTATAA [XGTACX_site1072] | 6.44
75 | ATATAATGATGGAAAAGAAAAGAAATAAAAAAAAAA [CACACA_negctrl_site1170] | 6.17
76 | AAATAATAAAACAACACACAAATAGTTAAAATAGAA [CACACA_site5007] | 6.87
77 | TTGACATATAAGATATGTACTAATACACACACATAT [XGTACX_site1904] | 6.84
78 | ACATTCTATATATACACACATACATAATAAAGAAAG [CACACA_site2771] | 6.9
79 | TATAAACCATAATTAACACACAAAATAAGTTACATA [CACACA_site3227] | 6.58
80 | ATAATAATAAAAATTATACATAAGTATATGCACATA [XGTACX_negctrl_site583] | 10.3
81 | TTTTGCTTTTTTTTTCTTTTTTGTTTTATATATATT [CACACA_negctrl_site103] | 6.37
82 | ACATATGGTATTTAAACACACAAAAAAGAAAGAAAA [CACACA_site991] | 6.43
83 | AAATGGTAAGAAAATAAATAAAGTTCTACCACATAA [CACACA_negctrl_site1542] | 6.41
84 | ATATATATATATATATATATATATGTTTGATTTTTT [XGTACX_negctrl_site98] | 9.73
85 | ATTTTTCTTTTATTAACACACATATAAATAAATACA [CACACA_site2876] | 6.6
86 | TAGAAAGAATATAATTGTACAAATGTTGATAGATAA [XGTACX_site7259] | 6.81
87 | TATATATATATATATATTTTAAATGATATAAATGGT [TGCATGCA_negctrl_site152] | 9.23
88 | AATTAATTAAATTAATGTACACATATATTTGTATTC [XGTACX_site2341] | 6.57
